Assay results taken from the supplement of paper PMC8728848.
This is one part of the list.

Legend:
Assay in all cases: glycan array binding signal (z-score within array); higher = stronger binding
Details in all cases: glycan notation: IUPAC condensed, linker removed
[1] = target: Neu5Ac(a2-3)Gal(b1-3)GlcNAc(b1-2)Man(a1-3)[GlcNAc(b1-4)][Neu5Ac(a2-3)Gal(b1-3)GlcNAc(b1-2)Man(a1-6)]Man(b1-4)GlcNAc(b1-4)GlcNAc
Summary of the method: (§1)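 Negative Z-scores can be read as non-binding. The Z-score is calculated within each array and then averaged across arrays of one protein sequence at different concentrations or buffers and across linkers. Arrays, 3228 in all, were curated from the Consortium for Functional Glycomics database and kept only where the protein sequence was available.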

[2] = target: Neu5Ac(a2-3)Gal(b1-3)GlcNAc(b1-2)Man(a1-3)[Neu5Ac(a2-3)Gal(b1-3)GlcNAc(b1-2)Man(a1-6)]Man(b1-4)GlcNAc(b1-4)GlcNAc
Summary of the method: as §1

[3] = target: Neu5Ac(a2-3)Gal(b1-3)GlcNAc(b1-3)Gal(b1-3)GlcNAc
Summary of the method: as §1

[4] = target: Neu5Ac(a2-3)Gal(b1-3)GlcNAc(b1-3)Gal(b1-4)GlcNAc
Summary of the method: as §1

[5] = target: Neu5Ac(a2-3)Gal(b1-3)GlcNAc(b1-3)GalNAc
Summary of the method: as §1

[6] = target: Neu5Ac(a2-3)Gal(b1-3)GlcNAc(b1-4)Gal(b1-4)Glc
Summary of the method: as §1

[7] = target: Neu5Ac(a2-3)Gal(b1-3)GlcNAc(b1-6)GalNAc
Summary of the method: as §1

[8] = target: Neu5Ac(a2-3)Gal(b1-3)GlcNAc6S
Summary of the method: as §1

[9] = target: Neu5Ac(a2-3)Gal(b1-3)[Fuc(a1-4)]GlcNAc
Summary of the method: as §1

[10] = target: Neu5Ac(a2-3)Gal(b1-3)[Fuc(a1-4)]GlcNAc(b1-3)Gal(b1-3)[Fuc(a1-4)]GlcNAc
Summary of the method: as §1

[11] = target: Neu5Ac(a2-3)Gal(b1-3)[Fuc(a1-4)]GlcNAc(b1-3)Gal(b1-4)[Fuc(a1-3)]GlcNAc
Summary of the method: as §1

[12] = target: Neu5Ac(a2-3)Gal(b1-3)[GlcNAc(b1-6)]GalNAc
Summary of the method: as §1

[13] = target: Neu5Ac(a2-3)Gal(b1-3)[Neu5Ac(a2-6)]GalNAc
Summary of the method: as §1

[14] = target: Neu5Ac(a2-3)Gal(b1-3)[Neu5Ac(a2-6)]GlcNAc(b1-3)[Fuc(a1-3)[Gal(b1-4)]GlcNAc(b1-6)]Gal(b1-4)Glc
Summary of the method: as §1

[15] = target: Neu5Ac(a2-3)Gal(b1-3)]Neu5Ac(a2-3)Gal(b1-4)]GlcNAc
Summary of the method: as §1

Neu5Ac(a2-3)Gal(b1-4)Glc = target: Neu5Ac(a2-3)Gal(b1-4)Glc
Summary of the method: as §1

[16] = target: Neu5Ac(a2-3)Gal(b1-4)GlcNAc
Summary of the method: as §1

[17] = target: Neu5Ac(a2-3)Gal(b1-4)GlcNAc(b1-2)Man
Summary of the method: as §1

[18] = target: Neu5Ac(a2-3)Gal(b1-4)GlcNAc(b1-2)Man(a1-3)[GlcNAc(b1-4)][Neu5Ac(a2-3)Gal(b1-4)GlcNAc(b1-2)Man(a1-6)]Man(b1-4)GlcNAc(b1-4)GlcNAc
Summary of the method: as §1

[19] = target: Neu5Ac(a2-3)Gal(b1-4)GlcNAc(b1-2)Man(a1-3)[Neu5Ac(a2-3)Gal(b1-4)GlcNAc(b1-2)Man(a1-6)]Man(b1-4)GlcNAc(b1-4)GlcNAc
Summary of the method: as §1

[20] = target: Neu5Ac(a2-3)Gal(b1-4)GlcNAc(b1-2)Man(a1-3)[Neu5Ac(a2-3)Gal(b1-4)GlcNAc(b1-2)Man(a1-6)]Man(b1-4)GlcNAc(b1-4)[Fuc(a1-6)]GlcNAc
Summary of the method: as §1

[21] = target: Neu5Ac(a2-3)Gal(b1-4)GlcNAc(b1-2)Man(a1-3)[Neu5Ac(a2-6)Gal(b1-4)GlcNAc(b1-2)Man(a1-6)]Man(b1-4)GlcNAc(b1-4)GlcNAc
Summary of the method: as §1

[22] = target: Neu5Ac(a2-3)Gal(b1-4)GlcNAc(b1-2)[Neu5Ac(a2-3)Gal(b1-4)GlcNAc(b1-4)]Man(a1-3)[GlcNAc(b1-4)][Neu5Ac(a2-3)Gal(b1-4)GlcNAc(b1-2)[Neu5Ac(a2-3)Gal(b1-4)GlcNAc(b1-6)]Man(a1-6)]Man(b1-4)GlcNAc(b1-4)GlcNAc
Summary of the method: as §1

[23] = target: Neu5Ac(a2-3)Gal(b1-4)GlcNAc(b1-2)[Neu5Ac(a2-3)Gal(b1-4)GlcNAc(b1-4)]Man(a1-3)[GlcNAc(b1-4)][Neu5Ac(a2-3)Gal(b1-4)GlcNAc(b1-4)Man(a1-6)]Man(b1-4)GlcNAc(b1-4)GlcNAc
Summary of the method: as §1

[24] = target: Neu5Ac(a2-3)Gal(b1-4)GlcNAc(b1-2)[Neu5Ac(a2-3)Gal(b1-4)GlcNAc(b1-6)]Man(a1-6)[Neu5Ac(a2-3)Gal(b1-4)GlcNAc(b1-2)Man(a1-3)]Man(b1-4)GlcNAc(b1-4)GlcNAc
Summary of the method: as §1

[25] = target: Neu5Ac(a2-3)Gal(b1-4)GlcNAc(b1-2)[Neu5Ac(a2-3)Gal(b1-4)GlcNAc(b1-6)]Man(a1-6)[Neu5Ac(a2-3)Gal(b1-4)GlcNAc(b1-2)Man(a1-3)][GlcNAc(b1-4)]Man(b1-4)GlcNAc(b1-4)GlcNAc
Summary of the method: as §1

[26] = target: Neu5Ac(a2-3)Gal(b1-4)GlcNAc(b1-3)Gal
Summary of the method: as §1

[27] = target: Neu5Ac(a2-3)Gal(b1-4)GlcNAc(b1-3)Gal(b1-3)GlcNAc
Summary of the method: as §1

[28] = target: Neu5Ac(a2-3)Gal(b1-4)GlcNAc(b1-3)Gal(b1-4)GlcNAc
Summary of the method: as §1

[29] = target: Neu5Ac(a2-3)Gal(b1-4)GlcNAc(b1-3)Gal(b1-4)GlcNAc(b1-2)Man(a1-3)[Neu5Ac(a2-3)Gal(b1-4)GlcNAc(b1-3)Gal(b1-4)GlcNAc(b1-2)Man(a1-6)]Man(b1-4)GlcNAc(b1-4)GlcNAc
Summary of the method: as §1

[30] = target: Neu5Ac(a2-3)Gal(b1-4)GlcNAc(b1-3)Gal(b1-4)GlcNAc(b1-3)Gal(b1-4)GlcNAc
Summary of the method: as §1

[31] = target: Neu5Ac(a2-3)Gal(b1-4)GlcNAc(b1-3)Gal(b1-4)GlcNAc(b1-3)Gal(b1-4)GlcNAc(b1-2)Man(a1-3)[Neu5Ac(a2-3)Gal(b1-4)GlcNAc(b1-3)Gal(b1-4)GlcNAc(b1-3)Gal(b1-4)GlcNAc(b1-2)Man(a1-6)]GalNAc
Summary of the method: as §1

[32] = target: Neu5Ac(a2-3)Gal(b1-4)GlcNAc(b1-3)Gal(b1-4)GlcNAc(b1-3)GalNAc
Summary of the method: as §1

[33] = target: Neu5Ac(a2-3)Gal(b1-4)GlcNAc(b1-3)Gal(b1-4)GlcNAc(b1-3)[Neu5Ac(a2-3)Gal(b1-4)GlcNAc(b1-3)Gal(b1-4)GlcNAc(b1-6)]GalNAc
Summary of the method: as §1

[34] = target: Neu5Ac(a2-3)Gal(b1-4)GlcNAc(b1-3)Gal(b1-4)GlcNAc(b1-6)[Gal(b1-3)]GalNAc
Summary of the method: as §1

[35] = target: Neu5Ac(a2-3)Gal(b1-4)GlcNAc(b1-3)Gal(b1-4)[Fuc(a1-3)]GlcNAc
Summary of the method: as §1

[36] = target: Neu5Ac(a2-3)Gal(b1-4)GlcNAc(b1-3)GalNAc
Summary of the method: as §1

[37] = target: Neu5Ac(a2-3)Gal(b1-4)GlcNAc(b1-3)[Neu5Ac(a2-3)Gal(b1-4)GlcNAc(b1-6)]GalNAc
Summary of the method: as §1

B1: PX9937J-pdi-523-26-523 (Parabacteroides distasonis) (protein)
chain: EPVSSISDANYWKSPDLFKAFNIGLHGLLRSQSSYNIFVLGEPRSDIYGDQPFGGEATQGVERFSYNTINAEFTGISNFANFYTTLNQINLMIRRTNETDLLGEAEKNYYLGQAYGLRAYIYFHLLRSWGDVIITTEPTLGSELDISHLDKAASPASEVMDLIKKDIDASEKAFGGDYSYKQGKCYWSKPATLMLKGEVYLWSGRQMGGGTGDYTVAKTALQDLQQNGNLKLQEKFTDVFSFNNKENSEMIFALHSGKEDDFMMWRDYNWRNNMVPQREYMAGYCDETGTPFLEIPGYNLQGLMRYQVKKDHYLKSFREGDTRLKGTLKAVYKKHEDGTLEYIAPIQYKFQGTTLEGSNERSWYDDYPIYRYADALLLLAEAKALLGEDPSTEINAVRERAYGSEYFNAHKNEVAYPNDKGSFYNDNPFEAGDENVMEAILKERLREFFFEGKRWYDLRRFGKDYVLKYTTAQESRLLWPINEGALTNNPALKQTPGY
B1 was tested, and the “glycan array binding signal (z-score)” value [1] was -0.244, the “glycan array binding signal (z-score)” value [2] was 0.408 and the “glycan array binding signal (z-score)” value [3] was -1. The “glycan array binding signal (z-score)” value [4] was -0.746, the “glycan array binding signal (z-score)” value [5] was -0.231 and the “glycan array binding signal (z-score)” value [6] was -0.121. For the same binder, the “glycan array binding signal (z-score)” value [7] was -0.794, the “glycan array binding signal (z-score)” value [8] was -0.141 and the “glycan array binding signal (z-score)” value [9] was 0.062. The “glycan array binding signal (z-score)” value [10] was -0.657, the “glycan array binding signal (z-score)” value [11] was -0.125 and the “glycan array binding signal (z-score)” value [12] was -0.593. The “glycan array binding signal (z-score)” value [13] was 0.071, the “glycan array binding signal (z-score)” value [14] was 0.553 and the “glycan array binding signal (z-score)” value [15] was -0.678. For the same binder, the “glycan array binding signal (z-score)” value (Neu5Ac(a2-3)Gal(b1-4)Glc) was -0.103, the “glycan array binding signal (z-score)” value [16] was -0.183 and the “glycan array binding signal (z-score)” value [17] was 0.387. For the same binder, the “glycan array binding signal (z-score)” value [18] was 0.059, the “glycan array binding signal (z-score)” value [19] was -0.559 and the “glycan array binding signal (z-score)” value [20] was -0.094. For the same binder, the “glycan array binding signal (z-score)” value [21] was -0.747, the “glycan array binding signal (z-score)” value [22] was 0.333 and the “glycan array binding signal (z-score)” value [23] was -0.182. For the same binder, the “glycan array binding signal (z-score)” value [24] was 0.065, the “glycan array binding signal (z-score)” value [25] was -0.236 and the “glycan array binding signal (z-score)” value [26] was -0.354. The “glycan array binding signal (z-score)” value [27] was 0.248, the “glycan array binding signal (z-score)” value [28] was -0.723 and the “glycan array binding signal (z-score)” value [29] was 0.712. For the same binder, the “glycan array binding signal (z-score)” value [30] was -0.655, the “glycan array binding signal (z-score)” value [31] was 0.287 and the “glycan array binding signal (z-score)” value [32] was -0.716. For the same binder, the “glycan array binding signal (z-score)” value [33] was 0.981, the “glycan array binding signal (z-score)” value [34] was 0.375 and the “glycan array binding signal (z-score)” value [35] was 0.766. For the same binder, the “glycan array binding signal (z-score)” value [36] was -0.116 and the “glycan array binding signal (z-score)” value [37] was -0.372.
